Laboratory results published in the RNAGym collection of RNA variant scans (doi:10.1101/gad.245936.114).
Variants at the floor of the assay are shown more often than the library holds them.

B1: tRNA (parent)
chain: CUCUCGGUAGCCAAGUUGGUUUAAGGCGCAAGACUUUAAUUUAUCACUACGAAAUCUUGAGAUCGGGCGUUCGACUCGCCCCCGGGAGAUUUUUUCCUCGAGCAA

Variants of: B1
Assay: nonsense suppression (GFP-seq) (ratio to wild type); higher = more function; SUP4oc tRNA, yeast GFP reporter sort-seq
Summary of the method: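 Yeast carrying genome-integrated SUP4oc tRNA variants from a library with ~3% random mutations were grown in raffinose/galactose medium with 80 mg/L adenine. Each strain also carried a galactose-driven GFP ochre reporter and RFP. Cells were sorted into GFP/RFP bins, and each bin was Illumina-sequenced (phred ≥30). Nonsense suppression (GFPSEQ) is the bin median GFP/RFP, weighted by each variant's estimated cell share per bin, relative to wild-type SUP4oc; variants needed ≥100 reads and ≥30 cells.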

C1A A60C C75U and C1A G28A U71C cannot be ordered by nonsense suppression: at most 0.026 for the first, at most 0.026 for the second.

C1A U35A U55G and C1A A9U U20A G73A cannot be ordered by nonsense suppression: at most 0.026 for the first, at most 0.026 for the second.

C1A C11U G69A A89C and C1G A9U G15U G78A cannot be ordered by nonsense suppression: at most 0.026 for the first, at most 0.026 for the second.

C1A U4C C11U C34A and C1A C5G A14U G19U G61A U70C cannot be ordered by nonsense suppression: at most 0.026 for the first, at most 0.026 for the second.

C1A C5U U17A U55A and C1A A9C G18A C34U G61C G65A cannot be ordered by nonsense suppression: at most 0.026 for the first, at most 0.026 for the second.

C1A A13C C83U and C1A C3G U58A C68G cannot be ordered by nonsense suppression: at most 0.026 for the first, at most 0.026 for the second.

First: C1G A60G
Second: C1A A30G G85A
The nonsense suppression of the first is lower: at most 0.026 for the first, 0.0742 for the second.

C1A C3A U8A G88A and C1A U17G C79A cannot be ordered by nonsense suppression: at most 0.026 for the first, at most 0.026 for the second.

C1A C34U A62G and C1A A23G C34U cannot be ordered by nonsense suppression: at most 0.026 for the first, at most 0.026 for the second.

C1G A23C and C1A U16C G32U G65A cannot be ordered by nonsense suppression: at most 0.026 for the first, at most 0.026 for the second.

C1G A9G C27U and C1A A14U cannot be ordered by nonsense suppression: at most 0.026 for the first, at most 0.026 for the second.

C1G C3U U16G G65A and C1G A60C C64A cannot be ordered by nonsense suppression: at most 0.026 for the first, at most 0.026 for the second.

C1G A54U U76A and C1A A14U C68G cannot be ordered by nonsense suppression: at most 0.026 for the first, at most 0.026 for the second.

C1A A23C and C1A A13C U21G G25U C29U G65A G85U cannot be ordered by nonsense suppression: at most 0.026 for the first, at most 0.026 for the second.

C1A U35G and C1G C5A C12U cannot be ordered by nonsense suppression: at most 0.026 for the first, at most 0.026 for the second.

C1A A62G and C1G C3A A54G cannot be ordered by nonsense suppression: at most 0.026 for the first, at most 0.026 for the second.

C1A C11G U21A U22C and C1A G69U cannot be ordered by nonsense suppression: at most 0.026 for the first, at most 0.026 for the second.

C1A C82A and C1A G69A C82A cannot be ordered by nonsense suppression: at most 0.026 for the first, at most 0.026 for the second.

C1A C79G and C1A C79U cannot be ordered by nonsense suppression: at most 0.026 for the first, at most 0.026 for the second.

C1A G10U G18C G19A U55G and C1A A24G A30U A62C cannot be ordered by nonsense suppression: at most 0.026 for the first, at most 0.026 for the second.

C1A A33C G88U and C1G A13U U16A G19U C56A C82A cannot be ordered by nonsense suppression: at most 0.026 for the first, at most 0.026 for the second.

C1G A74G and C1A G28A A87C cannot be ordered by nonsense suppression: at most 0.026 for the first, at most 0.026 for the second.

C1A A54G A62U and C1A G6U U58G cannot be ordered by nonsense suppression: at most 0.026 for the first, at most 0.026 for the second.

C1A U4G G15A and C1A U2G cannot be ordered by nonsense suppression: at most 0.026 for the first, at most 0.026 for the second.

C1G A31U U70A G84U and C1A A31G G86A cannot be ordered by nonsense suppression: at most 0.026 for the first, at most 0.026 for the second.

C1G A23G G26U G61A and C1A G10U A62U U76C cannot be ordered by nonsense suppression: at most 0.026 for the first, at most 0.026 for the second.

C1A U21C and C1A U57G cannot be ordered by nonsense suppression: at most 0.026 for the first, at most 0.026 for the second.

C1G A60G A62G G85A G86C and C1A C3U U17A C27G G59U cannot be ordered by nonsense suppression: at most 0.026 for the first, at most 0.026 for the second.

C1A A9C U17C U58G and C1A G7A C72U C80G cannot be ordered by nonsense suppression: at most 0.026 for the first, at most 0.026 for the second.

C1A G65C G85U and C1G C3G G25A C27U cannot be ordered by nonsense suppression: at most 0.026 for the first, at most 0.026 for the second.

C1G A31U U76C and C1A G18C A62U C64A cannot be ordered by nonsense suppression: at most 0.026 for the first, at most 0.026 for the second.

C1A C3U C56U and C1A G18C A60U cannot be ordered by nonsense suppression: at most 0.026 for the first, at most 0.026 for the second.

C1A C5A and C1A G73C cannot be ordered by nonsense suppression: at most 0.026 for the first, at most 0.026 for the second.

C1G A33C C68G A74G and C1A A23G G59U C82A cannot be ordered by nonsense suppression: at most 0.026 for the first, at most 0.026 for the second.

C1A U57A A62U and C1A A31U U55G G61U G66C cannot be ordered by nonsense suppression: at most 0.026 for the first, at most 0.026 for the second.

C1A C29A and C1A C29G cannot be ordered by nonsense suppression: at most 0.026 for the first, at most 0.026 for the second.

C1A G10U A13U U16A and C1A G15U A74C cannot be ordered by nonsense suppression: at most 0.026 for the first, at most 0.026 for the second.

C1G A89G and C1G A89U cannot be ordered by nonsense suppression: at most 0.026 for the first, at most 0.026 for the second.

C1A U35A G65C G69C C81U C82G and C1A C11A U58C G67A U71A cannot be ordered by nonsense suppression: at most 0.026 for the first, at most 0.026 for the second.

C1A C75A G88C and C1A A23C C29G A30G A74U G86C cannot be ordered by nonsense suppression: at most 0.026 for the first, at most 0.026 for the second.

C1A G25U A33U and C1A A9G A31G G59C G73U cannot be ordered by nonsense suppression: at most 0.026 for the first, at most 0.026 for the second.

C1A U20G and C1A A24U G28U C80A G85A cannot be ordered by nonsense suppression: at most 0.026 for the first, at most 0.026 for the second.

C1G C3G A9G C56A G59A A62C and C1A C34G G66A cannot be ordered by nonsense suppression: at most 0.026 for the first, at most 0.026 for the second.

C1A G10C C81A and C1A A23U A33G U55A G65C cannot be ordered by nonsense suppression: at most 0.026 for the first, at most 0.026 for the second.

C1A G26C and C1G A30U A62U cannot be ordered by nonsense suppression: at most 0.026 for the first, at most 0.026 for the second.

C1A A14U A33C C79A and C1A C5U U70A U76G cannot be ordered by nonsense suppression: at most 0.026 for the first, at most 0.026 for the second.

C1A A31U G84A G88A and C1G A9C G26C G73A cannot be ordered by nonsense suppression: at most 0.026 for the first, at most 0.026 for the second.

C1G C3G G78A G84A and C1A U55A cannot be ordered by nonsense suppression: at most 0.026 for the first, at most 0.026 for the second.

C1A G66C and C1A U57G U70A G86U cannot be ordered by nonsense suppression: at most 0.026 for the first, at most 0.026 for the second.

C1G A9U C29A C83U and C1A A31U A33C cannot be ordered by nonsense suppression: at most 0.026 for the first, at most 0.026 for the second.

C1A G7C and C1A G18C U35G cannot be ordered by nonsense suppression: at most 0.026 for the first, at most 0.026 for the second.

C1A C27G G61A C68G G78A and C1A U21A A24U A33G cannot be ordered by nonsense suppression: at most 0.026 for the first, at most 0.026 for the second.

C1G A13C U58A C72U U76G and C1A U2C U16G A24C G61C G85C cannot be ordered by nonsense suppression: at most 0.026 for the first, at most 0.026 for the second.

C1A G7U C11G U17G G25U and C1A C75A cannot be ordered by nonsense suppression: at most 0.026 for the first, at most 0.026 for the second.

C1G A24U U63A and C1A C72G cannot be ordered by nonsense suppression: at most 0.026 for the first, at most 0.026 for the second.

C1A C72U and C1A G26U G65U C80G cannot be ordered by nonsense suppression: at most 0.026 for the first, at most 0.026 for the second.

C1A U70C C79A and C1A A60U G88U cannot be ordered by nonsense suppression: at most 0.026 for the first, at most 0.026 for the second.

C1G C3A U35G and C1G A9U G15U C72G C79G cannot be ordered by nonsense suppression: at most 0.026 for the first, at most 0.026 for the second.

C1G A30G C34G and C1A U35G U57C C82U A87G cannot be ordered by nonsense suppression: at most 0.026 for the first, at most 0.026 for the second.

C1A G61C G78A A87G and C1A U17C C77A G84A cannot be ordered by nonsense suppression: at most 0.026 for the first, at most 0.026 for the second.

C1A G19A C82U and C1A G19A C82G cannot be ordered by nonsense suppression: at most 0.026 for the first, at most 0.026 for the second.

C1A A31U A54U and C1A U2A U4A A30C C75U cannot be ordered by nonsense suppression: at most 0.026 for the first, at most 0.026 for the second.

C1G A60G G66A U70C and C1A G69A G73C U76A cannot be ordered by nonsense suppression: at most 0.026 for the first, at most 0.026 for the second.

C1A A30C and C1A U21C G73A cannot be ordered by nonsense suppression: at most 0.026 for the first, at most 0.026 for the second.

C1A C34A G69A and C1A G59C C79A cannot be ordered by nonsense suppression: at most 0.026 for the first, at most 0.026 for the second.

C1A A9U G25A G32U and C1A G18A cannot be ordered by nonsense suppression: at most 0.026 for the first, at most 0.026 for the second.

C1A A33U C68U and C1G A30U cannot be ordered by nonsense suppression: at most 0.026 for the first, at most 0.026 for the second.

C1A A9U G15A C34G U63G and C1A A31G C34A U55C C83G cannot be ordered by nonsense suppression: at most 0.026 for the first, at most 0.026 for the second.

C1A A14C U35A and C1G A9C G19A cannot be ordered by nonsense suppression: at most 0.026 for the first, at most 0.026 for the second.

C1A C64A U76A and C1A U8A C12U U57A C75A cannot be ordered by nonsense suppression: at most 0.026 for the first, at most 0.026 for the second.

C1A G67C C72A and C1A U57A G86C cannot be ordered by nonsense suppression: at most 0.026 for the first, at most 0.026 for the second.

C1A C11G G32A U55C and C1G A31U cannot be ordered by nonsense suppression: at most 0.026 for the first, at most 0.026 for the second.

C1A G18U A24U A33G U63A G65A and C1A A13C G69C C75A cannot be ordered by nonsense suppression: at most 0.026 for the first, at most 0.026 for the second.

C1A U2C C3G and C1G C3A U70C cannot be ordered by nonsense suppression: at most 0.026 for the first, at most 0.026 for the second.

C1A U2G G19A G32C A89G and C1A U35A G73U G84C cannot be ordered by nonsense suppression: at most 0.026 for the first, at most 0.026 for the second.

C1A A60U and C1A A31G cannot be ordered by nonsense suppression: at most 0.026 for the first, at most 0.026 for the second.

C1A C12U A13C U22G U55C U63C and C1G A74U G86A cannot be ordered by nonsense suppression: at most 0.026 for the first, at most 0.026 for the second.

C1A G25C and C1A C29G G61U C75A cannot be ordered by nonsense suppression: at most 0.026 for the first, at most 0.026 for the second.

C1G A54G and C1A U70C G78C cannot be ordered by nonsense suppression: at most 0.026 for the first, at most 0.026 for the second.

C1A G6A U55A A60U A62U and C1A G6A U17A U58C G69U cannot be ordered by nonsense suppression: at most 0.026 for the first, at most 0.026 for the second.

C1A G10U A23C U55A and C1A C56U G65A cannot be ordered by nonsense suppression: at most 0.026 for the first, at most 0.026 for the second.

Going from C1A U21G C80G G85U to C1A C81U, the nonsense suppression rises from at most 0.026 to 0.045.

Compared with C1A U2A G7U A31C, C1A C80U is higher in nonsense suppression: at most 0.026 for the first, 0.0314 for the second.

In the case of C1A U63A G66C, the nonsense suppression is reported as at most 0.026.
